These results are taken from PubChem BioAssay AID488969 (Vanderbilt High Throughput Screening Facility, 2010).

The full ranking holds about 110,000 compounds; the median of “z-score” is about -0.1, and the highest 2% start at about 2. This is one part of the list.

The target of this test is Metabotropic glutamate receptor 8 (Rattus norvegicus) (UniProt P70579). Put plainly: rat mGluR8 modulators via GIRK flux, primary screen, cell-based, thallium flux, HTS (AID 488969). As to conditions: HEK293 rat mGluR8, GIRK (G protein-gated inwardly rectifying potassium channel) thallium flux, FluoZin2; at 10 µM; stronger effect = higher value; submaximal glutamate (EC20) added with thallium.
Chain of UniProt P70579 (P70579 whole entry, looked up): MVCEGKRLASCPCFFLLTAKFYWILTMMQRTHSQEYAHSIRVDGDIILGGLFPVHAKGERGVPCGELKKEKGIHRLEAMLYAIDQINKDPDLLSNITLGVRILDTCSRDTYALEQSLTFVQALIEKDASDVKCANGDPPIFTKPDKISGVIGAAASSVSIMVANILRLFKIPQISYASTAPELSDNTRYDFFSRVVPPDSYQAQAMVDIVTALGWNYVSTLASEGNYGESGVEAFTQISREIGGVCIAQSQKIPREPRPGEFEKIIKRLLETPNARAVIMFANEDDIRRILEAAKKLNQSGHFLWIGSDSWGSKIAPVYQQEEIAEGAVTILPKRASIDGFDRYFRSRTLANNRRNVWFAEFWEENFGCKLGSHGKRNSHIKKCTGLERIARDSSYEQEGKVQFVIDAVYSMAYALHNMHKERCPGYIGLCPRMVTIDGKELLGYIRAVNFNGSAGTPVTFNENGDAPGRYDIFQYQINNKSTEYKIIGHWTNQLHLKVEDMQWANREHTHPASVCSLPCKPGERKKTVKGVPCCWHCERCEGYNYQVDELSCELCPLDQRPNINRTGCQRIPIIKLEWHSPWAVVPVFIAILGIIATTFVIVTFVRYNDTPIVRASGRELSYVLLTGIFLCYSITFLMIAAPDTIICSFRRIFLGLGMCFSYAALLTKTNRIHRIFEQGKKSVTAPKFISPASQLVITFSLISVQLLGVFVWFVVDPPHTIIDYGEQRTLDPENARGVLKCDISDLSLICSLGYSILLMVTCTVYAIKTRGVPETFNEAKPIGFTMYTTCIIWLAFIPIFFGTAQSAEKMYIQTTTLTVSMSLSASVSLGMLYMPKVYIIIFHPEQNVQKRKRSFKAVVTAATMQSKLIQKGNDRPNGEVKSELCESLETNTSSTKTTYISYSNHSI
For `CC(=O)Nc1ccc(NC(=O)C/C(C)=N/NC(=O)C(=O)N2CCCC2)cc1`, the z-score amounted to 0.739. Take `Brc1ccc(CSc2nnc(-c3ccccn3)n2Cc2ccco2)cc1`: the z-score was -0.651. The result for `Cc1cc(OCC(=O)N2CCOCC2)cc2oc(=O)c3ccccc3c12` reads 0.118; that for `CCC(C)(C)n1nnnc1CN1CCSCC1`, -0.142; that for `COCCNc1oc(-c2ccccc2Cl)nc1C#N`, -0.0889. The result for `COc1cc(NC(=O)CN(c2ccc(C)cc2)S(=O)(=O)c2c(C)nn(C)c2C)cc(OC)c1` reads 0.144; that for `COc1ccc(-c2nc3ccccc3n2CCC(C)C)cc1OC`, 0.0771.

In the case of `CCOc1ccc(Br)cc1S(=O)(=O)Nc1ccc(C(=O)Nc2ccccc2OC)cc1`, the z-score is -0.253. The result for `CCCOn1nnnc1-c1ccccc1` reads -0.314. The result for `O=C(NCc1ccccc1)c1cccc(COc2cccc(Cl)c2)c1` reads -0.221; that for `c1coc(CNc2ncnc3sc4c(c23)CCCCC4)c1`, -2.31. In turn, `COC(=O)c1sccc1NC(=O)/C=C/c1ccc(Cl)cc1` gave a z-score of 0.097. The result for `Cc1nc2c(c(=O)n1CCC1=CCCCC1)c1nc3ccccc3nc1n2/N=C/c1ccccc1` reads -0.0614; that for `N#Cc1nc(Cc2cccc3ccccc23)oc1N1CCOCC1`, -0.151. The result for `CCCCOC(=O)CSC1=C(C#N)C(c2ccc3c(c2)OCO3)CC(=O)N1` (stereo not given) reads -0.0947; that for `CCOC(=O)c1ccc(-c2ccc(/C=C(\C#N)C(=O)NCC3CCCO3)o2)cc1` (stereo not given), -0.338.

For `Cn1c(CSc2nc3ccccc3s2)nnc1SCC(=O)NCCCN1CCOCC1`, the z-score is 0.0122. Take `Cc1cc(-n2c(C)cc(C(=O)COc3ccc4ccc(=O)oc4c3)c2C)no1`: the z-score was -0.124.

Regarding `O=C(Nc1cccc(-c2nc3ncccc3o2)c1)c1sc2ccccc2c1Cl`, the z-score was -0.22. The result for `CCOc1ccc(C)cc1S(=O)(=O)n1ccc(C)n1` reads -1.18; that for `CNc1nc(-c2ccc([N+](=O)[O-])cc2)cs1`, -0.11; that for `Cn1c(=O)c2c(nc(CN3CCOCC3)n2CC(O)CO)n(C)c1=O` (stereo not given), 0.081. Consider `CCOC(=O)N1CCN(C(=O)c2cc3c(s2)-c2ccccc2OC3)CC1`, for which the z-score is -0.152.

As to `Cc1ccc(C(=O)Nc2cc(=O)n(C)c(=O)n2C)cc1C`, the z-score was -0.313.

Turning to `CCOC(=O)c1ccc(S(=O)(=O)Nc2ccc3cn[nH]c3c2)cc1`, the z-score is -0.0633. The result for `O=S(=O)(c1ccccc1)c1nc(-c2cccs2)oc1NCC1CCCO1` (stereo not given) reads -0.672; that for `O=C(NCCN1CCOCC1)N1c2ccccc2Sc2ccccc21`, 0.897.

Compound `c1ccc(CN2CCC(Nc3nc(-c4ccccc4)nc4ccccc34)CC2)cc1` had a z-score of 0.64. Next, `Cc1cc(C)nc(N(C#N)CC(=O)c2ccccc2)n1`: -0.609.

Regarding `N#Cc1c(-c2ccc(C(F)(F)F)cc2)cc(-c2ccccc2)[nH]c1=S`, the z-score worked out at 1.24.

In the case of `CCSc1nnc(NC(=O)COc2cccc3ccccc23)s1`, the z-score is 0.16. Next, `CN(C)S(=O)(=O)c1ccc(C(=O)Nc2ccccn2)cc1`: -0.0975; `CCN1C(=O)CC(N2CCN(c3ccc(C(=O)c4ccncc4)cc3)CC2)C1=O` (stereo not given): -0.229.

Consider `CCSc1nnc(-c2ccc(S(=O)(=O)N3CCCC3)cc2)n1C`, for which the z-score was -0.0103. The result for `CC1CC(C)(C)NC(=S)N1CC(=O)NCc1ccc(Cl)cc1` (stereo not given) reads -0.00944. Next, `Cc1ccc(SC(c2ccc(C)cc2)C(Cn2cncn2)C(=O)c2ccccc2)cc1` (stereo not given): 0.157; `CSc1nnc(-c2cc3c(s2)-c2ccccc2CC3)o1`: 0.0264.

`CCOC(=O)c1sc(NC(=O)c2ccc(C)s2)cc1C`: the z-score was -0.192. As to `CC(=O)Oc1ccc(-c2nc(-c3cccnc3)no2)cc1`, the z-score is -0.307. Next, `CN1CCCc2cc(C#N)c(=O)[nH]c21`: -0.114. Next, `CCn1c(SCC(=O)Nc2nc(-c3ccc(C)cc3)cs2)nnc1-c1ccccc1`: 0.49; `CC(C)C(OC(=O)c1ccco1)C(=O)NCc1ccccc1` (stereo not given): -0.0488; `Cc1ccc(C(C)C)c(OCC(=O)Nn2c(C)nc3ccccc3c2=O)c1`: 0.0308. The result for `CC(OC(=O)c1cc2sccc2n1C)C(=O)NCC1CCCO1` (stereo not given) reads -0.0132. For `CCCC1(C)SC(NC(C)=O)=NN1C(C)=O` (stereo not given), the z-score was -0.232. As for `CCOc1ccc(C(=O)CSc2nnc(C3CC3)n2C)cc1`, the z-score was 0.371. Turning to `O=C(CCn1c(=O)c2sccc2n(CC(=O)OCc2ccccc2)c1=O)NCc1ccccc1`, the z-score was -0.217. Next, `CCOc1ccc(-n2nc(C(=O)N3CCN(CC)CC3)c3ccccc3c2=O)cc1`: -0.191; `C/C(CC(=O)Nc1ccc(Cl)c(C(F)(F)F)c1)=N\NC(=O)c1cccc(O)c1`: -0.177; `COc1cccc(Nc2nnc(SCC(=O)N3CCOCC3)s2)c1`: -0.21. Next, `C=CCN(CC(=O)Nc1c(C)cccc1CC)C(=O)SCCC`: -0.0916; `COc1cccc(Cn2cnc3c(NS(=O)(=O)c4cccc(Cl)c4Cl)c(C)c(C)cc32)c1`: -0.00392.

`COc1cc(/C=N/NC(=O)Nc2ccccc2)ccc1OCCOc1ccccc1C`: the z-score is -0.208.

With `COc1ccc(OC)c(N(CC(=O)N2CCCC2)S(=O)(=O)c2ccc(OC)c(OC)c2)c1`, the z-score was -0.00672. The result for `Cc1ccc(-c2ccc(OCC(=O)N3CCOCC3)cc2)cc1` reads 1.26; that for `CCOC(=O)c1c(C)oc2cc(Br)c(OCC(N)=O)cc12`, 1.13; that for `Cc1cc(C)c(C)c(S(=O)(=O)N2CCN(CC(=O)NC(=O)NCc3ccccc3)CC2)c1C`, 0.0583. Next, `COC(=O)c1c(NC(=O)/C=C/C(=O)O)sc(Cc2ccccc2)c1C`: -0.663; `Cc1c(NC(=O)c2cccc(F)c2)c(=O)n(-c2ccccc2)n1C`: -0.22. The compound `COc1ccc([N+](=O)[O-])cc1C1NN=C(c2cccc3ccccc23)S1` (stereo not given) yielded a z-score of 0.135.

In the case of `COc1ccc(NC(C)C(=O)Nc2cc(C(F)(F)F)ccc2N2CCOCC2)c(OC)c1` (stereo not given), the z-score is -0.332. For the compound `CCCCN1C2=C(C(=O)CC(C)(C)C2)C(c2ccccc2)C2=C1c1ccccc1C2=O` (stereo not given), the z-score is -0.424. The result for `Cn1c(-[n+]2c(-c3ccccc3)cc(-c3ccccc3)cc2-c2ccccc2)nc2cc([N+](=O)[O-])ccc21` reads -0.139. The result for `CCOC(=O)c1c(C)n(C)c2ccc(OC)c(NC(=O)CN3CCC4(CC3)OCCO4)c12` reads -0.405; that for `CCOC(=O)c1oc2cc(O)ccc2c(=O)c1-c1ccc(OC)cc1`, -0.261; that for `N=C1CCCN1CC(=O)c1ccc(Br)cc1`, 0.153. The result for `O=c1nc(NCc2ccco2)sc2ncccc12` reads 0.489. For `O=[N+]([O-])c1cccc(-n2nnnc2CN2CCCCCC2)c1`, the z-score is -0.013. The result for `CCOCCOC(=O)C(C)Sc1n[nH]c(=O)[nH]c1=O` (stereo not given) reads -0.177; that for `CCN(CC)c1ncnc2c1sc1nc(C)cc(C)c12`, 0.224.
